Molecules are shown by their SMILES. Over roughly 110,000 compounds, “z-score” has its median near -0.1; the highest 2% begin near 2. The list shows a part of the results. Active and inactive are the calls of the source.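 How the source made its calls: active means z-score in the third read window above 3 or below -3; inactive means the rest.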

The test has as its target Metabotropic glutamate receptor 8 (Rattus norvegicus) (UniProt P70579). As to the kind of experiment: rat mGluR8 modulators via GIRK flux, primary screen, cell-based, thallium flux, HTS (AID 488969). The following applies: HEK293 rat mGluR8, GIRK (G protein-gated inwardly rectifying potassium channel) thallium flux, FluoZin2; at 10 µM; stronger effect = higher value; submaximal glutamate (EC20) added with thallium.
Sequence of UniProt P70579 (P70579 whole entry, looked up): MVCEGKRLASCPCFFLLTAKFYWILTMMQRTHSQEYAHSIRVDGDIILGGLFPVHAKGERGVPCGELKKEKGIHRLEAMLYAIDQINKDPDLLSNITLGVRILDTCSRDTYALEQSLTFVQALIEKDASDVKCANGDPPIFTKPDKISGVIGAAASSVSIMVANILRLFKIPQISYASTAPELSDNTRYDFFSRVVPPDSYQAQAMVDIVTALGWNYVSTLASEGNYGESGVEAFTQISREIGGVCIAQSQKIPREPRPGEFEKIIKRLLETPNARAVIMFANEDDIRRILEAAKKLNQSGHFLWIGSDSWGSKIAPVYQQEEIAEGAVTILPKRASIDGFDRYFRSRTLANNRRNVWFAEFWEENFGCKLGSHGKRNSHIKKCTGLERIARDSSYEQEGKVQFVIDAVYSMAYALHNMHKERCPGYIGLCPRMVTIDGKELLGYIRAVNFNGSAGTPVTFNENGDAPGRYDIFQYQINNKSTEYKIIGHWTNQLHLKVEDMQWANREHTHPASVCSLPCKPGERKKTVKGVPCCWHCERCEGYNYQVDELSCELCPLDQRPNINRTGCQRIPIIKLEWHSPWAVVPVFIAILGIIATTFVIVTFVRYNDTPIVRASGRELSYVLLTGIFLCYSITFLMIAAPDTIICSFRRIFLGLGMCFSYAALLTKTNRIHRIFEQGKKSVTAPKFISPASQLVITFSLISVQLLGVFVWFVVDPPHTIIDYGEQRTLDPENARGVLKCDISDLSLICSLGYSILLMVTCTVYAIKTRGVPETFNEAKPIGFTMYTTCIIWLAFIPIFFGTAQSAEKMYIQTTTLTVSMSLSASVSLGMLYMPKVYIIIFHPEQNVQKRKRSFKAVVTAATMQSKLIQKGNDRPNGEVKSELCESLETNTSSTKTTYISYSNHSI
With `COc1ccccc1NC(=O)CCN1CCN(Cc2ccccc2)CC1`, the z-score is -0.174.

Regarding `O=C(NCc1ccccc1)Nc1cccn(Cc2ccccc2F)c1=O`, the z-score is -0.0615.

On to `Clc1ccc(OCCN2CCCCC2)c(Cl)c1`, for which the z-score is 0.502.

Turning to `CC(C)n1c(C(=O)OCC(=O)NCc2ccc3c(c2)OCO3)cc2sccc21`, the z-score was -0.44.

In the case of `CC(=O)c1ccc(NC(=O)c2noc3c2CCCCC3)cc1`, the z-score was -0.238.

On to `Cc1sc(-c2ccccn2)nc1OC(=O)c1cccc(Cl)c1Cl`, for which the z-score is -0.206.

In the case of `CCn1c(N)c(C(=O)NCc2ccc3c(c2)OCO3)sc1=S`, the z-score stood at 0.155.

In the case of `O=C(NCc1cccs1)c1cc(S(=O)(=O)N2CCCCC2)ccc1Cl`, the z-score was -0.0516.

For the compound `Cc1cc(C)cc(Oc2ccc(N)cc2)c1`, the z-score was -0.0297.

Regarding `Cn1c(=O)c2c(nc(CN3CCOCC3)n2CC(=O)c2ccccc2)n(C)c1=O`, the z-score is -0.336.

Turning to `Cc1cc(/C=C2/C(=O)NN(c3ccccc3)C2=O)c(C)n1-c1ccc(O)cc1`, the z-score is -0.505.

With `CC1CCN(C(=O)CSc2nc3ccccc3s2)CC1`, the z-score was -0.0843.

As to `Cc1ccccc1NC(=O)NCCc1nc2ccccc2[nH]1`, the z-score was -0.0805.

As to `CN(C)/N=C/C=C1\CC/C(=C\c2ccc(Br)cc2)C1=O`, the z-score is -0.096.

Turning to `CCOC(=O)c1c(NC(=O)COc2cccc3c2CCN(C)C3=O)sc2c1CCC2`, the z-score is -0.448.

Take `CCOC(=O)Cc1c(C)nc2c(-c3ccccc3)c(C)nn2c1C`: the z-score was -1.04.

With `O=S1(=O)N=C(Nc2ccc(N3CCOCC3)cc2)c2ccccc21`, the z-score was -0.076.

In the case of `Cn1ncc(Cl)c1C(=O)Nc1cccnc1`, the z-score is -0.143.

Consider `O=C(Nc1ccc2c(c1)CCC2)c1cc(S(=O)(=O)N2CCN(c3ccccc3)CC2)ccc1Cl`, for which the z-score was 0.424.

Regarding `CCOC(=O)c1c(C)n(CCO)c2ccc(O)cc12`, the z-score was -0.314.

For the compound `CCCN(/C=N/c1sc2c(c1C#N)CCCCC2)CCC`, the z-score is -0.155.

Consider `CCOCCCn1cnc2c([nH]c3cc(OC)ccc32)c1=O`, for which the z-score worked out at 1.01.

Turning to `O=C(/C=C/c1cccc(Cl)c1)Nn1c(-c2cccs2)nc2ccccc2c1=O`, the z-score is -0.649.

As for `O=C1N/C(=N\N=C\c2cccs2)SC1Cc1ccc(Cl)cc1Cl` (centres undefined), the z-score came out at 0.000784.

In the case of `Cn1c(=O)c2c(ncn2CC(=O)N2CCN(c3ccccc3F)CC2)n(C)c1=O`, the z-score stood at 0.213.

Consider `CC(/C=N/NC(=O)c1cc(-c2ccc(C)o2)[nH]n1)=C\c1ccccc1`, for which the z-score is -0.433.

For `Cc1cc2cc(CNC(=O)NC3CCCCC3)ccc2[nH]1`, the z-score was -1.13.

As to `O=C(NCC1CCCO1)Nc1ccc(Cl)cc1` (centres undefined), the z-score amounted to 1.33.

Regarding `Cn1c(CSCc2ccc(Cl)c(Cl)c2)n[nH]c1=S`, the z-score is -0.0279.

On to `S=C(NCCc1ccccc1)N/N=C/c1cccc(Cl)c1Cl`, for which the z-score was 2.63.

With `O=C(COC(=O)C1CC(=O)N(Cc2ccccc2)C1)c1ccc(Br)cc1` (centres undefined), the z-score is -0.566.

`COc1nccnc1NS(=O)(=O)c1ccc(NC(=S)NC(=O)c2ccc(F)c(F)c2)cc1`: the z-score is -0.232.

`O=C(Cc1ccccc1)NCCSCc1ccco1`: the z-score was -0.725.

With `O=C1OC2(CCCCC2)OC(=O)C1=CNc1nc2ccccc2s1`, the z-score is active: 8.02.

Regarding `COc1cc(NC(=O)c2ccco2)c(C(=O)OCC(=O)c2c[nH]c3ccccc23)cc1OC`, the z-score was -0.154.

Consider `CCOC(=O)C1C(=O)C=C(c2cccs2)CC1c1ccccc1C` (centres undefined), for which the z-score is -0.107.

With `Cc1ccc(Cl)cc1NC(=O)C(NS(=O)(=O)c1cccs1)c1ccccc1` (centres undefined), the z-score was -0.17.

As for `Cc1cc(N2CCCCC2)ccc1[N+](=O)[O-]`, the z-score was -0.179.

As for `C/C(CC1CC(C)OC1=O)=N\NC(N)=S` (centres undefined), the z-score was -2.66.

In turn, `Cc1cccc2c(SCC(=O)NCC3CCCO3)nc(-c3ccc(F)cc3)nc12` (centres undefined) displayed a z-score of 0.182.

`CCOC(=O)c1cnc(SC)nc1Sc1cc(Cl)ccc1Cl`: the z-score is -0.264.

Regarding `O=C(Nc1nc2ccc(S(=O)(=O)N3CCCC3)cc2s1)c1cccs1`, the z-score is -0.222.

For the compound `O=C(NCc1cccc(C(F)(F)F)c1)c1cc(Cl)ccc1Cl`, the z-score is -0.401.

`CCN(CC)c1ccc(/C=N/NS(=O)(=O)c2cccc([N+](=O)[O-])c2)cc1` had a z-score of 0.533.

Consider `COc1ccc(C(CC(=O)Nc2nccs2)n2cccc2)cc1` (centres undefined), for which the z-score is -0.82.

Take `CN(C)CCNC(=O)c1ccc(COc2ccc(Cl)cc2Cl)cc1`: the z-score was -0.247.

Consider `O=C(CN1CCCCCC1)N/N=C/c1cccs1`, for which the z-score was -0.0704.

For the compound `NC(=O)c1c(N)sc2c1CCCCC2`, the z-score was 0.451.

`N/C(COc1ccccc1)=N\NC(=O)c1cccnc1Oc1ccccc1`: the z-score is -0.277.

In the case of `O=c1c2ccccc2cnn1-c1ccc2ccccc2c1`, the z-score is -0.124.

`CC1(C)OC(=O)C(=NNc2ccc(Cl)cc2)C(=O)O1`: the z-score is -0.142.

Take `CC(C)Cc1nnc(NC(=O)Cc2ccc([N+](=O)[O-])cc2)s1`: the z-score was -0.0415.

The compound `O=C(CN(C1CCCCC1)S(=O)(=O)c1ccc(Cl)cc1)NCc1ccncc1` displayed a z-score of 0.589.

As for `Clc1cccc(Oc2cnns2)c1Cl`, the z-score was -0.207.

In the case of `COc1ccc(C2=Nc3nc(-c4ccccc4)cn3C(c3ccc(OC)cc3)C2)cc1` (centres undefined), the z-score is -0.00501.

As for `CCN(C(=O)Cn1c(=O)n2nc(CCn3nc(C)cc3C)nc2c2ccccc21)c1cccc(C)c1`, the z-score was -0.611.

Take `CC(C)(C)Nc1nc(NC(C)(C)C)nc(-n2ccnc2)n1`: the z-score was -0.351.

For `CCc1cccc(CC)c1NC(=O)CSc1nc2ccc(N3C(=O)C4C(C3=O)[C@H]3C=C[C@@H]4C3)cc2s1` (some centres undefined), the z-score stood at 0.706.

`CCOc1ccc2nc(SCC(=O)c3cccs3)sc2c1` displayed a z-score of 0.561.

Turning to `COc1cc2ccc(=O)oc2c(O)c1OCC=C(C)C`, the z-score was determined as 0.834.

Consider `CCOC(=O)c1cc(CC)sc1NC(=O)Cc1ccccc1`, for which the z-score is -0.249.

For the compound `N#CC1=C(N)Oc2c(ccc3ccccc23)C1c1cccs1` (centres undefined), the z-score is -2.19.

For the compound `CCCOc1ccc(/C=c2\sc3nc(-c4ccco4)nn3c2=O)cc1OCC`, the z-score is -1.4.

Regarding `COc1ccccc1-c1c(C)nn2c(N3CCC4(CC3)OCCO4)cc(C)nc12`, the z-score is 1.46.

Turning to `CCCCn1c(SCC(=O)OCC)nc2c1c(=O)[nH]c(=O)n2C`, the z-score was -0.555.

Take `COc1ccc(C2=NO[C@@H]3C(=O)N(c4ccc5c(c4)OCCO5)C(=O)[C@H]23)cc1OC`: the z-score came out at 0.345.

Turning to `O=C(CSc1nnc(COc2cccc3cccnc23)o1)N1CCN(C(=O)c2ccco2)CC1`, the z-score was -0.115.

Turning to `c1ccc2c(c1)ncn2CCOCCOCCn1cnc2ccccc21`, the z-score was found to be 1.07.

As for `O=C1CCN(S(=O)(=O)c2ccccc2)C2CCCCC12` (centres undefined), the z-score was -0.114.

With `O=c1[nH]c2ccc(N/C(=N/S(=O)(=O)c3ccccc3)c3ccccc3)cc2[nH]1`, the z-score is 0.0277.

For `Nc1nc2ccccc2n1CCOc1ccccc1Cl`, the z-score was found to be 1.42.

In the case of `Cc1ccc(C(=O)CNc2cccc(Cl)c2)cc1`, the z-score was -0.0331.

As to `COc1ccc2c(c1)CCCN2C(N)=O`, the z-score worked out at 0.285.

For `CCOC(=O)c1cc2c(=O)n3ccccc3nc2n(CC(C)C)c1=NC(=O)c1ccco1`, the z-score is -1.06.

With `CCN1C(=O)c2cccc3c(S(=O)(=O)Nc4ccncc4)ccc1c23`, the z-score came to 1.2.

Take `COc1ccc(NC(=O)c2ccc3ccccc3n2)cc1S(=O)(=O)N1CCCCC1`: the z-score was -0.647.

`CCc1nc(N)c(C#N)c(-c2cccn2C)c1C`: the z-score was -0.723.

For `CC(C)(C)c1ccc(/C([O-])=C(/C(=S)NCc2ccco2)[n+]2ccccc2)cc1`, the z-score was -0.191.

For `Fc1ccccc1CNc1ccc(Cl)c(Cl)c1`, the z-score was found to be 0.179.

Consider `N#Cc1c(-c2ccc3c(c2)OCO3)ccn2nc(-c3cccc(C(F)(F)F)c3)nc12`, for which the z-score is -0.221.

For the compound `COc1ccc(S(=O)(=O)N2CCN(C(=O)c3cccs3)CC2)cc1`, the z-score is 0.0417.

Turning to `O=C1OC(Nc2ccc(Br)cc2F)c2ccccc21` (centres undefined), the z-score was -0.197.

For `CCCOc1ccc2oc(=O)c3c(c2c1)CCCN3C(=O)CN(C)Cc1ccccc1`, the z-score is -0.481.

`COC(=O)CSc1n[nH]c(-c2ccncc2)n1`: the z-score was 0.0349.

For the compound `Cc1ccc2[nH]c3c(=O)n(Cc4ccncc4)cnc3c2c1`, the z-score stood at 0.0687.

Consider `COc1ccc(C(O)Cc2nc3ccccc3n2C)cc1OC` (centres undefined), for which the z-score was -0.323.

In turn, `CCCn1nnc(NC(=O)c2cccnc2Cl)n1` showed a z-score of 0.0465.

Consider `Oc1ccc(Cl)cc1C=NCCc1ccccc1`, for which the z-score was -0.0626.

Regarding `O=C(CSc1nc2ncc(Br)cc2[nH]1)c1cccc([N+](=O)[O-])c1`, the z-score amounted to 1.67.

Regarding `O=C(NCc1cccnc1)/C(=C\c1ccc(-c2ccc(Cl)c(Cl)c2)o1)S(=O)(=O)c1ccccc1`, the z-score was -0.237.

As for `COc1ccc(N2C(=O)C3CCCN3C2c2cccc(OC)c2)cc1` (centres undefined), the z-score was -0.0891.

The compound `CCOC(=O)CCNC(C(=O)OCC)c1ccccc1` (centres undefined) displayed a z-score of 0.373.

Regarding `COCC(=O)Oc1c(S(=O)(=O)c2ccc(C)cc2)c(C)nn1-c1ccccc1`, the z-score was -0.0554.

Consider `CS/C(=N\S(=O)(=O)c1cccs1)Nc1cccc(Cl)c1C`, for which the z-score is -0.779.

For the compound `COc1ccc2[nH]cc(C(O)CN3CCC(C(N)=O)CC3)c2c1` (centres undefined), the z-score is -0.153.

Take `CCOc1cc(-c2noc(-c3cccnc3)n2)ccc1OC`: the z-score was active: 3.79.

Consider `COc1ccc2cc3c(N)c(C(=O)NCc4ccco4)sc3nc2c1`, for which the z-score was -0.558.

Compound `CCS(=O)(=O)N1Cc2ccccc2CC1C(=O)Nc1nc2ccc(C)cc2s1` (centres undefined) showed a z-score of 0.132.

`CNC(=S)NNC(=O)c1sccc1OCc1ccccc1`: the z-score is -0.78.

In turn, `COc1cc2c(-c3ccc(O)cc3)nc3c(c(C)nn3-c3ccccc3)c2cc1OC` yielded a z-score of 0.0433.

Turning to `Cc1ccccc1NC(=O)CC(O)(C(F)(F)F)C(F)(F)F`, the z-score came out at 0.117.

As to `CCCSc1nc(N)c(C#N)c(-c2ccc(C)cc2)c1C#N`, the z-score is -0.167.

The compound `CC(=O)Nc1ccccc1C(=O)N1CC(C)OC(C)C1` (centres undefined) came in with a z-score of 0.0934.

With `CCN(C(=O)COC(=O)c1cc(C)n(-c2ccc(F)cc2)c1C)C1CCS(=O)(=O)C1` (centres undefined), the z-score was -0.0278.

For `NC(=O)C1CCN(Cc2nc3ccccc3c(=O)[nH]2)CC1`, the z-score was -0.276.

Regarding `COc1cc(C(=S)N(C)C)ccc1O`, the z-score is 0.406.

Take `CCN1CCN(c2nc3c(c(=O)[nH]c(=O)n3C)n2CCSc2nc3ccccc3s2)CC1`: the z-score is -0.0151.

With `COc1ccc(-c2noc(CSc3nnc(Cc4ccccc4)n3-c3ccc(Cl)cc3)n2)cc1`, the z-score worked out at 0.663.

Compound `CCOC(=O)c1csc(NC(=O)c2ccccc2)n1` showed a z-score of 0.302.

Regarding `CC(=O)NCCc1nc2ccccc2[nH]1`, the z-score was 0.0213.

Compound `O=S(=O)(NCCc1cn2ccccc2n1)c1ccc2c(c1)OCCO2` showed a z-score of 0.3.

As to `Cn1cc(/C=C(\C#N)C(=O)Nc2ncc(Cc3ccc(Cl)cc3)s2)c2ccccc21`, the z-score is -0.338.

Regarding `Cc1ccc(C(=O)C2CCN(CC(=O)Nc3nc(C)cs3)CC2)cc1`, the z-score is -0.391.

`CCNS(=O)(=O)c1ccc(OC)c(C)c1` showed a z-score of 0.021.

The record behind these values is PubChem BioAssay AID488969 (Vanderbilt High Throughput Screening Facility, 2010).
